Data reported in PubChem BioAssay AID504333 (National Center for Advancing Translational Sciences (NCATS), 2011).
Hit rate of the full screen: of about 360,000 compounds, about 16,000 (4.4%) were called active. The shares of active, inactive and inconclusive entries below differ from those in the screen. Calls come from the whole dose curve; as a rule, active = well fitted inhibition curve with a large enough effect; inconclusive = small, poorly fitted or top-dose-only effect; inactive = no such curve, though single readings can be large or run the other way. Where the call is inconclusive, the potency comes from a doubtful curve fit.

What follows are molecules tested against Bromodomain adjacent to zinc finger domain protein 2B (Homo sapiens) (UniProt Q9UIF8) (assay: qHTS Assay for Inhibitors of BAZ2B). Details: AlphaScreen BAZ2B-H3K14Ac peptide displacement; series mostly up to 114 µM.
Procedure, shortened: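 AlphaScreen displacement of biotin-H3(5-23)K14Ac peptide (50 nM final) from BAZ2B (50 nM final) in PBS pH 7.4, 0.01% Tween-20; complex preformed 30 min RT, then compounds (top 110 uM) 30 min RT, beads 20 min dark.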
Note: nearly all actives have a fitted effect of over 60% in size.
Potency is the fitted concentration of half-maximal effect; tags give direction and shape of the fitted curve.

UniProt Q9UIF8, sequence (Q9UIF8 whole entry, looked up, the tested form may be a part): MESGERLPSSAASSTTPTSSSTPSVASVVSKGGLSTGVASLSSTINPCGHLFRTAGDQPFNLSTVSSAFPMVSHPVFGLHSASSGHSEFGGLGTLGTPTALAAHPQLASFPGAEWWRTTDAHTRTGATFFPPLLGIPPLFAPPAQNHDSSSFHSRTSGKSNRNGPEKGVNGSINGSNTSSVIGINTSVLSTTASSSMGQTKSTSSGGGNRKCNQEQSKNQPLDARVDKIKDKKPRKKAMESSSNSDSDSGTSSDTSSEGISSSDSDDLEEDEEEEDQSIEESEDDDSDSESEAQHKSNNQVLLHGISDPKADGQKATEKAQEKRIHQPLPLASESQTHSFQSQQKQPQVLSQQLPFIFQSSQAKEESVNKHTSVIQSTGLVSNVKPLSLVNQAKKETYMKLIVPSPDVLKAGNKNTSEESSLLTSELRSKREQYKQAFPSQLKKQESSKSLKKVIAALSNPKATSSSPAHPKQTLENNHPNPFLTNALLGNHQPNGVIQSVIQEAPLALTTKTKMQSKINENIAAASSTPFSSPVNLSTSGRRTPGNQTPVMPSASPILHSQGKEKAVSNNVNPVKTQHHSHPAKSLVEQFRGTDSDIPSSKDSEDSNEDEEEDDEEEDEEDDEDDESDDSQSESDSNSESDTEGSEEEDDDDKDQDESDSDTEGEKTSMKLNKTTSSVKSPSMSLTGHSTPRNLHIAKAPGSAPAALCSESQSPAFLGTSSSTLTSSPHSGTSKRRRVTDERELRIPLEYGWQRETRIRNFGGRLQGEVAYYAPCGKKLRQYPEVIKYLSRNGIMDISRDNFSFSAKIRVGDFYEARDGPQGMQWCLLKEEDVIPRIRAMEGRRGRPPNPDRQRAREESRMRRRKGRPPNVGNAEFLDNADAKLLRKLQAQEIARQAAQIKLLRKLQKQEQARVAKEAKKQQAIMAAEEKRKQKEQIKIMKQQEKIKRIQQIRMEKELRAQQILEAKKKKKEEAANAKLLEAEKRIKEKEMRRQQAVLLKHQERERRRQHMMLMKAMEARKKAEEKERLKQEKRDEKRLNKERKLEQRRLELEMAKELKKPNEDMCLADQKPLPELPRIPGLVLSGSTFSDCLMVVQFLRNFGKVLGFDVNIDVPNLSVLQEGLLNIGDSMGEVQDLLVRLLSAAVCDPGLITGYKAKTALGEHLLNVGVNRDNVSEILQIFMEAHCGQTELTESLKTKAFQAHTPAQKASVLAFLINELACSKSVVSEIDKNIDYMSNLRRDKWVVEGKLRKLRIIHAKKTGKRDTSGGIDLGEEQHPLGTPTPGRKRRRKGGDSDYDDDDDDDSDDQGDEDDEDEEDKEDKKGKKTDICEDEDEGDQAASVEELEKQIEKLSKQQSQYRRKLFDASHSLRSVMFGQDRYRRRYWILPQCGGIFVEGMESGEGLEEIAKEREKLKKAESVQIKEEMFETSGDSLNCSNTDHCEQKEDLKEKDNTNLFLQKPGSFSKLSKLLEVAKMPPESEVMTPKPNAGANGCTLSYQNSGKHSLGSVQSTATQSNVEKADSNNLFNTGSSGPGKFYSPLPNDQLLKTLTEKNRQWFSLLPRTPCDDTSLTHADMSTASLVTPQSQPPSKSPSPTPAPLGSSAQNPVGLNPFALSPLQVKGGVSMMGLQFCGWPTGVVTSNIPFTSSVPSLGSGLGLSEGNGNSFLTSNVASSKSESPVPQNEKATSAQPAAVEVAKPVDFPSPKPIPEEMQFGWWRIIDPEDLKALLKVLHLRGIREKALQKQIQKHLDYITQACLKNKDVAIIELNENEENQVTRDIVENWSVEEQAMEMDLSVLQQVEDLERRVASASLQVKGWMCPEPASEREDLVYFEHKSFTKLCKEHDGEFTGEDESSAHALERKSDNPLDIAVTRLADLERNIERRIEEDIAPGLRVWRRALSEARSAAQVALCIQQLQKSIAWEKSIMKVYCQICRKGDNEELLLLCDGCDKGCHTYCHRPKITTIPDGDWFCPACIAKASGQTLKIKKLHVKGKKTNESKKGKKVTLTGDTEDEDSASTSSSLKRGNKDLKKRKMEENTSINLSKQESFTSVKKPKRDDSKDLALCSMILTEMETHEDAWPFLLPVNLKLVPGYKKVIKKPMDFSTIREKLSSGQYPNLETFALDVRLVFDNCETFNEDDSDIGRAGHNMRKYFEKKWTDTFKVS

SMILES	Potency
CCC1S/C(=C(\C#N)C(=O)NCc2ccco2)N(c2ccc(Br)cc2)C1=O (stereo not given)	inconclusive: 89.1 µM [inhibitor, single point]
CC(C)C[C@H](NC(=O)c1nc[nH]c1C(=O)N1CCN(c2ccccc2)CC1)C(=O)OCc1ccccc1	inconclusive: 56.2 µM [inhibitor, partial curve, poor fit]
CCOC(=O)N1CCC(NC(=S)Nc2ccc3nc(N4CCN(CC)CC4)cc(C)c3c2)CC1	inconclusive: 79.4 µM [inhibitor, single point]
CC1=C([N+](=O)[O-])C(c2cccc(Br)c2)C2=C(N1)c1ccccc1C2=O (stereo not given)	active: 14.1 µM
Cc1coc2c(C)c3oc(=O)c(CCC(=O)NCCC(=O)O)c(C)c3cc12	active: 50.1 µM
CC(=O)N1CCCC1c1nc2ccccc2n1Cc1cc(C)ccc1C (stereo not given)	inconclusive: 89.1 µM [inhibitor, single point]
CCOc1cc(CN2CCN(c3cccc(C(F)(F)F)c3)CC2)ccc1OC	active: 8.91 µM
Cc1ccc(-c2cc(C(=O)Nc3ccc(S(=O)(=O)Nc4nccs4)cc3)c3ccccc3n2)c(C)c1	inconclusive: 31.6 µM [inhibitor, partial curve]
CC(=O)OC(C(=O)N1CCN(c2ccc(F)cc2)CC1)c1ccccc1 (stereo not given)	inactive
O=C(CNc1ccccc1Cl)c1ccc(Br)cc1	inactive
COc1cc(C2NC(=O)CCC2[N+](=O)[O-])cc(Br)c1OC (stereo not given)	inactive
COC(=O)C1=C(C)N(Cc2ccc(C)cc2)C(=O)/C1=C\c1cc(OC)c(OC)c(OC)c1	active: 39.8 µM
C=CCn1c(SCC(C)=O)nnc1-c1cc(-c2ccccc2)sc1N	inconclusive: 89.1 µM [inhibitor, single point]
CCc1cc(C(=O)N(CCCOC)c2c(N)n(Cc3ccccc3)c(=O)[nH]c2=O)sc1C	inactive
NC(N)=N/N=C/c1ccc(OCc2ccccc2)cc1	inactive
CCCCN(CC)C(=O)C1CCC(CNS(=O)(=O)c2cccc3nsnc23)CC1 (stereo not given)	inactive
Cc1cccc(N2CCN(C(=O)/C=C/c3cccs3)CC2C)c1 (stereo not given)	inconclusive: 56.2 µM [inhibitor, partial curve]
COc1ccccc1C(=O)N(Cc1ccco1)Cc1ccccc1F	inconclusive: 89.1 µM [inhibitor, single point]
COc1ccc(Cl)cc1NC(=O)CN1C(=O)CSc2ccc(S(=O)(=O)N3CCCC3)cc21	inactive
CCc1ccc(C(=O)c2cn(CC(=O)Nc3cccc(C)c3C)c3nc(C)ccc3c2=O)cc1	inconclusive: 39.8 µM [inhibitor, full curve, poor fit]
COc1cccc(CN2CCc3ccc(NC(=O)CCc4ccc(C)cc4)cc3C2)c1O	inconclusive: 28.2 µM [inhibitor, full curve]
CCOc1ccccc1NC(=O)CSc1n[nH]c(N)n1	inactive
CCN(CC)c1ccc(CN(C(=O)c2cccs2)C2CCS(=O)(=O)C2)cc1 (stereo not given)	inconclusive: 56.2 µM [inhibitor, partial curve]
NC(=O)c1ccc(Cn2c(C(=O)c3ccc(Cl)cc3)c3ccccc3[n+]2[O-])cc1	inconclusive: 89.1 µM [inhibitor, single point]

SMILES	Potency
COc1ccc(C(=O)N2CCc3cc(OC)c(OC)cc3C2c2cccc([N+](=O)[O-])c2)cc1 (stereo not given)	inconclusive: 79.4 µM [inhibitor, single point]
O=C1ON=C(c2ccc([N+](=O)[O-])cc2)/C1=C/c1ccccc1O	inactive
Cc1ccc2c(NC(=S)NC(=O)c3ccccc3)cccc2n1	inconclusive: 70.8 µM [inhibitor, single point]
Cn1cccc1Cc1nnc(SCC(=O)Nc2ccc(F)cc2)n1-c1ccc(F)cc1	inconclusive: 44.7 µM [inhibitor, partial curve]
Oc1ccc(CN2CCN(c3ccccc3)CC2)c2cccnc12	inconclusive: 89.1 µM [inhibitor, single point]
CN(C)C(=O)c1ccc2c(c1)C1C3CCC(C3)C1C(c1ccccc1)N2 (stereo not given)	inconclusive: 79.4 µM [inhibitor, single point]
COc1ccc(Br)cc1CN1CCN(C(=O)c2ccco2)CC1	active: 28.2 µM
CCOC(=O)c1cnc2c(ccc3ccccc32)c1Nc1ccc(OC)cc1OC	inconclusive: 22.4 µM [inhibitor, full curve]
O=C(/C=C/c1ccc(F)cc1)NC(=S)NNC(=O)c1cnccn1	active: 2.82 µM
NC(=O)c1ccccc1N/C=C1\CCCCC1=O	inconclusive: 79.4 µM [inhibitor, partial curve]
CCc1nc(N2CCN(C(=O)c3ccco3)CC2)c(C#N)c2c1COC(C)(C)C2	inconclusive: 70.8 µM [inhibitor, single point]
Cc1cccc(Nc2nc(NCc3ccco3)c3ccccc3n2)c1	inconclusive: 79.4 µM [inhibitor, single point]
Oc1ccc2ccccc2c1C=NC1CCCCC1	inconclusive: 44.7 µM [inhibitor, partial curve]
Cc1ccccc1C(=O)c1cccn1CC(=O)NCc1ccc2c(c1)OCO2	inconclusive: 89.1 µM [inhibitor, single point]
O=C(COC(=O)c1ccc(S(=O)(=O)NCc2ccco2)cc1)Nc1ccc(Cl)cn1	active: 56.2 µM
CCOc1ccc(-n2c(-c3ccco3)n[nH]c2=S)cc1	inconclusive: 89.1 µM [inhibitor, single point]
COc1cc2c(cc1OC)CN(c1ccc([N+](=O)[O-])cc1C#N)CC2	inconclusive: 35.5 µM [inhibitor, full curve, poor fit]
O=C(CNCc1cccc(Cl)c1)N1CCc2ccccc2C1	active: 56.2 µM
Nc1ccccc1C(=O)N=Nc1[nH]c(N)c2ccccc12	active: 35.5 µM
Cc1ccc(C(=O)COC(=O)c2cnccn2)cc1[N+](=O)[O-]	inconclusive: 89.1 µM [inhibitor, single point]
Cc1cc(C(=O)CN2C(=O)NC3(CCC(C)CC3)C2=O)c(C)n1C (stereo not given)	inconclusive: 79.4 µM [inhibitor, single point]
COc1ccccc1N1CCN(c2nc3ccccc3nc2C(C#N)C(=O)OC(C)C)CC1 (stereo not given)	inconclusive: 31.6 µM [inhibitor, full curve]
CCOc1cc(CNCCSc2nnnn2C)cc(Cl)c1OCc1ccc(Cl)cc1	inactive
Cn1c(=O)n(C)c2cc(N3CCOCC3)c(NS(=O)(=O)c3ccc(Br)cc3)cc21	active: 50.1 µM

SMILES	Potency
c1ccc2c(c1)CCN2CCN1CCc2ccccc21	inconclusive: 35.5 µM [inhibitor, partial curve]
CC(C)(C)NC(=O)C(c1ccncc1)N(C(=O)Cn1nnc(-c2ccc(F)cc2)n1)c1ccccc1 (stereo not given)	inconclusive: 39.8 µM [inhibitor, partial curve]
S=c1[nH]nc(-c2ccccn2)n1/N=C/c1ccc(Cl)cc1	active: 17.8 µM
C/C(=N\Nc1ccc(Cl)cc1)c1ccncc1	inconclusive: 50.1 µM [inhibitor, partial curve]
CCSc1nc2sc3c(c2c(=O)n1-c1ccc(C)cc1)CCCC3	inactive
CC(=O)NC(CC(=O)Oc1ccc(C)cc1Br)c1ccccc1 (stereo not given)	inconclusive: 89.1 µM [inhibitor, single point]
CC1(C(=O)O)Sc2[nH]c(=O)sc2C2c3ccccc3OC(=O)C21 (stereo not given)	inconclusive: 79.4 µM [inhibitor, partial curve]
COc1ccccc1C1C(C(C)=O)=C(C)N=c2s/c(=C\c3cc(OC)c(OC)c(OC)c3)c(=O)n21 (stereo not given)	inconclusive: 39.8 µM [inhibitor, full curve, poor fit]
CC(C)CNc1cc(NC2CCCCC2)c2c3c(onc13)-c1ccccc1C2=O	active: 25.1 µM
CCn1cc([N+](=O)[O-])c(=O)c2cc(F)c(N3CCOCC3)cc21	inconclusive: 89.1 µM [inhibitor, single point]
CC(C)(C)c1cc(NCCCn2ccnc2)n2ncc(-c3ccc(Cl)cc3)c2n1	inconclusive: 89.1 µM [inhibitor, single point]
COC(=O)c1c(-c2ccc(C)cc2)csc1NC(=S)NC(=O)c1cc(OC)cc(OC)c1	inconclusive: 89.1 µM [inhibitor, single point]
CCCCCOc1ccc(NC(=O)CSc2cccc3cccnc23)cc1	inactive
O=C(Nc1cccc([N+](=O)[O-])c1)N1CCCc2ccccc21	inactive
Cc1nccn1CC(=O)N/N=C/c1ccccc1O	active: 44.7 µM
Cc1ccsc1/C=C1/C(=O)NN(c2ccccc2)C1=O	inconclusive: 44.7 µM [inhibitor, partial curve]
CN(C)c1ccc(S(=O)(=O)NCC(=O)OCC(=O)Nc2cc(Cl)cc(Cl)c2)cc1[N+](=O)[O-]	inconclusive: 70.8 µM [inhibitor, single point]
Cc1ccc(NC2CCCN(C(=O)c3ccoc3C)C2)cc1C (stereo not given)	inconclusive: 50.1 µM [inhibitor, partial curve]
O=C(Nc1cc(Sc2ccccn2)cc([N+](=O)[O-])c1)c1cccc(Cl)c1	inconclusive: 50.1 µM [inhibitor, partial curve]
CC1=Nc2cc(C(=O)NCc3ccco3)ccc2Sc2ccc(C)cc21	inconclusive: 44.7 µM [inhibitor, partial curve]
CCCNC(=S)N1CCN(C(c2ccccc2)c2ccccc2)CC1	inactive
O=C(NC(=S)Nc1ccc(O)cc1)c1ccccc1Cl	inconclusive: 79.4 µM [inhibitor, single point]
